Reference: paper PMC6750928
No constants are given. Whether binding was seen depends on the method and setting. In cells and extracts the contact can be indirect. Some binding calls cover weakened binding; strength is not graded here.

Chains of the proteins cited; added tags and fusions are not shown. Residues count along the entry.
UniProt O15218: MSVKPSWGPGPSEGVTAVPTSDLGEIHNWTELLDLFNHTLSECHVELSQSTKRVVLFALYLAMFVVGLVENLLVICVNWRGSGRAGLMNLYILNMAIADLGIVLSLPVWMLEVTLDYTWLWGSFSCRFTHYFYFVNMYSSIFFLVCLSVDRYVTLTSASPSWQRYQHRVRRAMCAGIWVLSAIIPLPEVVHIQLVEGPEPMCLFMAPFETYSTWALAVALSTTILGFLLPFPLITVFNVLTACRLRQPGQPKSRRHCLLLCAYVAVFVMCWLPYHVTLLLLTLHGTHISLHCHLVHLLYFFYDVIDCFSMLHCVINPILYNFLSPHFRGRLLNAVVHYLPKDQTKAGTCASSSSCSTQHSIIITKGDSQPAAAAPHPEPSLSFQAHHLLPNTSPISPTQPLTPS
UniProt P46093: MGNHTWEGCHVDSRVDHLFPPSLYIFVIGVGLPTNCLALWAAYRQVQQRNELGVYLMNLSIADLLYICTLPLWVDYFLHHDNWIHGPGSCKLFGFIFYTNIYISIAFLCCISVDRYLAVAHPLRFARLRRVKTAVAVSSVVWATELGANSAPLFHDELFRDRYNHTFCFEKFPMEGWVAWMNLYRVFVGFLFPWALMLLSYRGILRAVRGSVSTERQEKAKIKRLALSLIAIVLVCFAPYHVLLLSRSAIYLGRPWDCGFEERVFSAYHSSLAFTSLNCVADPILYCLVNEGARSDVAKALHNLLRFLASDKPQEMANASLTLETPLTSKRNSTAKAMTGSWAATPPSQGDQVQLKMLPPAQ
UniProt Q03431, residues 29-593: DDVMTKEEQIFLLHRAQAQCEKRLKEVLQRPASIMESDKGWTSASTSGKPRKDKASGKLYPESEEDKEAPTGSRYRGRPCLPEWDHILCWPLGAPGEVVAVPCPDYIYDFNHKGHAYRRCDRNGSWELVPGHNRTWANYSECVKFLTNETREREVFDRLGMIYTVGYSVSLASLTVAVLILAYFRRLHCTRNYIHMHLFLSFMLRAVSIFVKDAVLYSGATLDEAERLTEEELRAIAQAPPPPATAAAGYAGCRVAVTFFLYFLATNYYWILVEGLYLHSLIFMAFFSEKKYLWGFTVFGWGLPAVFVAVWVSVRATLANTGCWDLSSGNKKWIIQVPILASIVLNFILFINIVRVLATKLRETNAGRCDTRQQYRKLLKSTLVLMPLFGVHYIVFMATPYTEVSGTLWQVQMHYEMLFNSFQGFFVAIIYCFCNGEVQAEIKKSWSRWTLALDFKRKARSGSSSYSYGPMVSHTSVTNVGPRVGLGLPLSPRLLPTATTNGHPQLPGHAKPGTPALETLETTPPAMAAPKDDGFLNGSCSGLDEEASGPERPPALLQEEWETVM
UniProt P47871, residues 27-477: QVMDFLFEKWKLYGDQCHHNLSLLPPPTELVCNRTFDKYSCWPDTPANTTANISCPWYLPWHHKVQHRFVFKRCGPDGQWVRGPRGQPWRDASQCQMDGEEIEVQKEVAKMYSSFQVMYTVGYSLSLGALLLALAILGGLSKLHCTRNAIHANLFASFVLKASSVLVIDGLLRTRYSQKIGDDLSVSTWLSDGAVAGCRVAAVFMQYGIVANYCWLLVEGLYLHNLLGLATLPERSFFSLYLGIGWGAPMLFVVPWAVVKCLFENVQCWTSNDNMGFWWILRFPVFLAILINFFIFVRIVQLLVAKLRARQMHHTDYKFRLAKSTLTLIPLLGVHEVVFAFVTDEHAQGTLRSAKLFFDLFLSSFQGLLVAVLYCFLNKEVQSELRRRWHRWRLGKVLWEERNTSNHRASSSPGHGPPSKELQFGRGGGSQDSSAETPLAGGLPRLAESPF
UniProt P34998, residues 24-415: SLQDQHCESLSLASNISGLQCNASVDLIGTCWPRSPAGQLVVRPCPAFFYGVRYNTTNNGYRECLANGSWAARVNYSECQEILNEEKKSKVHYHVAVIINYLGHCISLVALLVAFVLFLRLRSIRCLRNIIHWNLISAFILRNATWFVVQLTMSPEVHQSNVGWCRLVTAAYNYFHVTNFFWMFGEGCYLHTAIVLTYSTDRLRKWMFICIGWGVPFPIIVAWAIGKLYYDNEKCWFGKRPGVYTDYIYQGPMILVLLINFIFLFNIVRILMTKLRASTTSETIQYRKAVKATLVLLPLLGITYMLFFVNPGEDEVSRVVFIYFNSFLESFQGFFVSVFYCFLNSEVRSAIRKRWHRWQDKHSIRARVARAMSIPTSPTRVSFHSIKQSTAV
UniProt P51681: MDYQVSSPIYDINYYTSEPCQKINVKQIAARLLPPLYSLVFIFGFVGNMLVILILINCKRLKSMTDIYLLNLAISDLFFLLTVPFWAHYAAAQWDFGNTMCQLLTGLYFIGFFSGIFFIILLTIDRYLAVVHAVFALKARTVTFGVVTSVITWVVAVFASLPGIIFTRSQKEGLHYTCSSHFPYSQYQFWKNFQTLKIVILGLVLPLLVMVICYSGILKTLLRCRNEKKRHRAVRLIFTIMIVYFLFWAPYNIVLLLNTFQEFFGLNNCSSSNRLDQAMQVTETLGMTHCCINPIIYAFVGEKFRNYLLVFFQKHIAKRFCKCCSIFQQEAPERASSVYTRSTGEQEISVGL
UniProt P32248, residues 25-378: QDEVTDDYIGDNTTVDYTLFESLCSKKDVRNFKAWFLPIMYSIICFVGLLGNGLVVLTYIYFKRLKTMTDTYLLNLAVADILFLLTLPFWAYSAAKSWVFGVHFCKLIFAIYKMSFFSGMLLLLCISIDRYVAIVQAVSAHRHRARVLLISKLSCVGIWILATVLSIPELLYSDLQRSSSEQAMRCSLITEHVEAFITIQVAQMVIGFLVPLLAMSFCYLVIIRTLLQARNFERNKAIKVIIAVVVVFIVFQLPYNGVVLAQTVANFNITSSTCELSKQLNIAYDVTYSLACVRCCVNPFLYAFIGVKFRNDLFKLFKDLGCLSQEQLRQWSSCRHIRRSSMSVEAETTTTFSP
UniProt P49190, residues 25-550: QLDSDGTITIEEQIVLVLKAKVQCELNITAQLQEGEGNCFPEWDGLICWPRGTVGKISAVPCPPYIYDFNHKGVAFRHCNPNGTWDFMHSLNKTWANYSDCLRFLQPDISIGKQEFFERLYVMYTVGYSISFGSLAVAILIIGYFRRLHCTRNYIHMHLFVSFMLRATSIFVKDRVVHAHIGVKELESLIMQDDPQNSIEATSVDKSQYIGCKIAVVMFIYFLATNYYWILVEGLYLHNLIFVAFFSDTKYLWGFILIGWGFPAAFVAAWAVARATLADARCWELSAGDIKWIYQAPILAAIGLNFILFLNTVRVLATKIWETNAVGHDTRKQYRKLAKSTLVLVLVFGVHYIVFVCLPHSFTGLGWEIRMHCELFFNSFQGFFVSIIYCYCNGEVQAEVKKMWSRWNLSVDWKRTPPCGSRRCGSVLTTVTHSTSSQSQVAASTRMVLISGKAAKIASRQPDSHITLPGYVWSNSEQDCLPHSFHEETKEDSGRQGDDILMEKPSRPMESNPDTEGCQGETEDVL
UniProt P43220, residues 24-463: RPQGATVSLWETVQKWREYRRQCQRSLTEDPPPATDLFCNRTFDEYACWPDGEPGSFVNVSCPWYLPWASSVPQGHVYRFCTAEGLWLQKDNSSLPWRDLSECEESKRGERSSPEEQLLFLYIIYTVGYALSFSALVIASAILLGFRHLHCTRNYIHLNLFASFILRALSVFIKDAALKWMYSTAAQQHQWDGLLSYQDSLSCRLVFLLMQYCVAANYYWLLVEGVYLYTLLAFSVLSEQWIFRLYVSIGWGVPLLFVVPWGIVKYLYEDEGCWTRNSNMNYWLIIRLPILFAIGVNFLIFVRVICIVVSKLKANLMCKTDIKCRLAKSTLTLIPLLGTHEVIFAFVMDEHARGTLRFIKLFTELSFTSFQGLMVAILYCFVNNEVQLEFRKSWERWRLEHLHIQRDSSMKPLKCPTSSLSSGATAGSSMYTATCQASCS
UniProt P49682: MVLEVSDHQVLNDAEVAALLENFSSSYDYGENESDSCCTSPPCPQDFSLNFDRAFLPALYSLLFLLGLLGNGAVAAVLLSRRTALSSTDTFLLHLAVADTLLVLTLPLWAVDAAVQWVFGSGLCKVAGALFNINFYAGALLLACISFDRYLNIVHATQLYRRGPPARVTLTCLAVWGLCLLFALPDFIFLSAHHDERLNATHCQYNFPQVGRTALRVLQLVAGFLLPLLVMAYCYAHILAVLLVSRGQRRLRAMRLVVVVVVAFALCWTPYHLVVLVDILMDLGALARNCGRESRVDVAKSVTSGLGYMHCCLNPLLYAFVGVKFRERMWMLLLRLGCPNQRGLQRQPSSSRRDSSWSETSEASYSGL
UniProt P47872, residues 28-440: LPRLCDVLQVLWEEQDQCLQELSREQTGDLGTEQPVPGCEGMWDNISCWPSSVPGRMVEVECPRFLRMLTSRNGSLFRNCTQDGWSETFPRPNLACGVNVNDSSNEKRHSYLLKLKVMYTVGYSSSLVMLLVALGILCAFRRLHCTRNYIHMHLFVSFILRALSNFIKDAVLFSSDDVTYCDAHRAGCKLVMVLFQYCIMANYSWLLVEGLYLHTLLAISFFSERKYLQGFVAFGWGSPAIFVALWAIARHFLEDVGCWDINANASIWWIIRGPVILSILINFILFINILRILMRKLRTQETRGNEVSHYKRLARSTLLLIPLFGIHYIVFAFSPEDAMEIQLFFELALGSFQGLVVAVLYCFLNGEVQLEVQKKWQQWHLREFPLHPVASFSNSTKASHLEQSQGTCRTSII
UniProt O60895, residues 43-175: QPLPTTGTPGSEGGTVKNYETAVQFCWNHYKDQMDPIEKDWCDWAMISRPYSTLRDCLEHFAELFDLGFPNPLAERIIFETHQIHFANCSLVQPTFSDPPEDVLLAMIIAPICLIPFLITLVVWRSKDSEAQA

Columns and labels:
[1] = target: G protein-coupled receptor 182 (human) (UniProt O15218); test: proximity ligation; HEK293T cells cotransfected with HA-tagged GPCR and FLAG-tagged RAMP2, fixed with methanol (or formaldehyde), rabbit anti-HA and mouse anti-FLAG primary Abs, DuoLink In Situ Red; PLA puncta per cell
[2] = target: G protein-coupled receptor 4 (human) (UniProt P46093); test: as above
[3] = target: Parathyroid hormone receptor 1 (human) (UniProt Q03431); test: as above
[4] = target: Glucagon receptor (human) (UniProt P47871); test: co-IP; multiplexed suspension bead array (SBA) immunoassay: clarified lysates (1% DM; 50 mM Hepes, 1 mM EDTA, 150 mM NaCl, 5 mM MgCl2, pH 7.4) of HEK293F cells cotransfected with tagged GPCR and RAMP, diluted to 50 ug/ml, incubated overnight at 4°C with bar-coded beads carrying anti-tag (HA, 1D4, FLAG, OLLAS), anti-GPCR or anti-RAMP Abs; the partner detected with a PE-conjugated anti-tag mAb; Luminex FlexMap 3D, MFI
[5] = target: Corticotropin-releasing hormone receptor 1 (human) (UniProt P34998); test: as above
[6] = target: Parathyroid hormone receptor 1 (human) (UniProt Q03431); test: as above
[7] = substrate: C-C chemokine receptor type 5 (human) (UniProt P51681); test: as above
[8] = substrate: C-C chemokine receptor type 7 (human) (UniProt P32248); test: as above
[9] = target: Parathryoid hormone receptor 2 (human) (UniProt P49190); test: as above
[10] = target: Glucagon-like receptor 1 (human) (UniProt P43220); test: as above
[11] = target: C-X-C chemokine receptor type 3 (human) (UniProt P49682); test: as above
[12] = target: Secretin receptor (human) (UniProt P47872); test: as above

For “Receptor activity-modifying protein 2 (from UniProt O60895 43-175)”, the binding [1] was “binds”, the binding [2] was “binds” and the binding [3] was “binds”. The binding [4] was “binds”, the binding [5] was “binds” and the binding [6] was “binds”.

B1: Receptor activity-modifying protein 3 (protein, UniProt O60896 28-148)
chain: CNETGMLERLPLCGKAFADMMGKVDVWKWCNLSEFIVYYESFTNCTEMEANVVGCYWPNPLAQGFITGIHRQFFSNCTVDRVHLEDPPDEVLIPLIVIPVVLTVAMAGLVVWRSKRTDTLL
B1 was tested, and the binding [7] was “no binding”, the binding [8] was “no binding” and the binding [9] was “binds”. For the same molecule, the binding [10] was “binds”, the binding [11] was “binds weakly” and the binding [12] was “binds”.
